Source: PubChem BioAssay AID1468 (National Center for Advancing Translational Sciences (NCATS), 2008)
Several values for one entry are separate records, joined by “and”; a condition that tells them apart may be missing. Identical values can stand only once. The campaign covered roughly 280,000 compounds. About 1,100 (0.39%) were called active. The inconclusive results got no clear call from the source; some entries with a clear call stand among them for comparison. The call rests on the fitted dose curve; in most records, active means well fitted inhibition curve with a large enough effect; inconclusive means small, poorly fitted or top-dose-only effect, or effect the other way; inactive means flat fitted curve, though single readings scatter. A potency beside an inconclusive call is a rough fit, not a confirmed value.

The compounds below were run against Microtubule-associated protein tau (Homo sapiens) (UniProt P10636) (assay: qHTS for Inhibitors of Tau Fibril Formation, Fluorescence Polarization). Settings: K18 P301L tau heparin fibrillization, Alexa594 FP, 6 h; series mostly up to 57.7 µM; activity, negative = inhibition: at the top concentration.
Summary of the method: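 Read-out: fluorescence polarization of Alexa 594-labeled tau (0.24 uM), 555 nm excitation, 632 nm emission. Mixtures held 15 uM unlabeled K18 P301L, compound and 20 uM heparin, pH 7 acetate buffer, incubated 6 hr at 37 C.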
Further: nearly all actives have a fitted effect of over 55% in size.
On the % scale 0 is the no-effect control and ±100 the full control effect; potency means the concentration at half of the fitted maximal effect; tags describe the fitted curve by direction and shape.

Chain of UniProt P10636 (P10636 whole entry, looked up): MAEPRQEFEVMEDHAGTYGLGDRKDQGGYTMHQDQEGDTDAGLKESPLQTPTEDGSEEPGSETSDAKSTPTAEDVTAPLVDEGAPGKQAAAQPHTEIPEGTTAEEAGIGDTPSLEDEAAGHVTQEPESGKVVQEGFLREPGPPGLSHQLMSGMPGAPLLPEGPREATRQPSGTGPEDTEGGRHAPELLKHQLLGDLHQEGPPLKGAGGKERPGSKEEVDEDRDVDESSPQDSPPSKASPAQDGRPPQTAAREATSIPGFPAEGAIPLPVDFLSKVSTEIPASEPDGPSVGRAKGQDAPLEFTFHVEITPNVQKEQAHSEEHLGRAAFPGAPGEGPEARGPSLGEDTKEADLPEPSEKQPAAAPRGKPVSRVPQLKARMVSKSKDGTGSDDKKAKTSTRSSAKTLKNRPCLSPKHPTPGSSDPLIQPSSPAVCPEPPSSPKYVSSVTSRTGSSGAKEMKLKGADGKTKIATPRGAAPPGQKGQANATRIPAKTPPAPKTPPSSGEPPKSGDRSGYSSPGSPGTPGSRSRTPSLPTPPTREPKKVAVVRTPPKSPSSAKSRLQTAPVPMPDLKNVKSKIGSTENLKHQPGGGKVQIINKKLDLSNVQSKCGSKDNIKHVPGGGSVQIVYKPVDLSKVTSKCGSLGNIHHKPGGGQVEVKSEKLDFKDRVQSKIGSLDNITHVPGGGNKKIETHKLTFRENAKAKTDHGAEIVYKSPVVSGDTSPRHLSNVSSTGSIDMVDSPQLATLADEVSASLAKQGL

| Compound | activity, negative = inhibition | Potency |
| --- | --- | --- |
| CN(CC(=O)Nc1ccccc1-c1ccccc1)Cc1ccccc1Cl | inactive: -1.97% | – |
| O=C(O)C1CCCCC1C(=O)Nc1cc(C(F)(F)F)ccc1Cl (stereo not given) | – | inconclusive: 7.08 µM [inhibitor, partial curve] |
| CCOC(=O)CC1C(=O)NCCN1c1nc2c(C)cccn2c(=O)c1/C=C1\SC(=S)N(C(C)CC)C1=O (stereo not given) | – | inconclusive: 31.6 µM [inhibitor, partial curve] |
| NS(=O)(=O)c1ccc2c(c1)C1C=CCC1C(C1CC=CCC1)N2 (stereo not given) | – | inconclusive: 35.5 µM [inhibitor, single point] |
| O=C(Nc1cccc(S(=O)(=O)Nc2ccc(Cl)cc2)c1)c1ccc(Cl)nc1 | – | inconclusive: 20 µM [inhibitor, partial curve] |
| COc1ccc(/C=C(/C#N)c2nc(-c3ccc(Br)cc3)cs2)cc1 | – | inconclusive: 35.5 µM [inhibitor, single point] |
| Cc1cc(Br)ccc1NC(=O)C1CCN(S(=O)(=O)c2ccc(Br)s2)CC1 | – | inconclusive: 17.8 µM [inhibitor, single point] |
| CCOC(=O)c1c(N)sc(=S)c2c1CCC2 | – | inconclusive: 25.1 µM [inhibitor, partial curve] |
| COc1ccc(NC(=O)c2c(C)oc3ccc(O)c(CN4CCN(Cc5ccccc5)CC4)c23)cc1 | – | inconclusive: 0.0631 µM [activator, full curve, poor fit] |
| COC(=O)c1ccc2nccnc2c1 | inactive: 0.866% | – |
| O=C(Nc1ccc(Cl)cc1)Nc1ccc(N2CCCC2)c(S(=O)(=O)Nc2ccccc2Cl)c1 | – | inconclusive: 28.2 µM [inhibitor, single point] |
| CC1(C)CC(=O)CC2(C1)NCC(c1ccccc1)c1c2[nH]c2ccccc12 (stereo not given) | – | inconclusive: 8.91 µM [inhibitor, single point] |
| O=c1cc(O)nc(SCc2ccccc2Cl)[nH]1 | – | inconclusive: 7.94 µM [inhibitor, partial curve, poor fit] |
| COc1cc(NC(=O)c2ccc(NC(=O)N3CCSc4ncccc43)cc2)cc(OC)c1 | inactive: -10.4% | – |
| Nc1nc(NCCc2ccc(O)cc2)nc2nc(-c3ccco3)nn12 | – | inactive |
| CCOc1cccc2sc(N(CCN(CC)CC)C(=O)c3ccco3)nc12 | inactive: 3.31% | – |
| O=C(Nc1ccc(C(=O)Oc2ccccc2)c(O)c1)c1ccco1 | – | inconclusive: 17.8 µM [inhibitor, partial curve, poor fit] |
| COc1ccc(CCNCC2C(Oc3ccc(Cl)cc3)C(=O)N2c2ccccc2C)cc1OC (stereo not given) | inactive: -5.49% | – |
| CCOc1cc(/C=N/NC(=O)Cn2nc([N+](=O)[O-])cc2C)cc(Br)c1OCc1ccccc1C | – | inconclusive: 14.1 µM [inhibitor, partial curve] |
| CCOC(=O)c1sc(NC(=S)NC(=O)c2ccccc2)c(C(=O)OCC)c1C | – | inconclusive: 7.94 µM [inhibitor, single point] |
| Cc1ccc(CNC(=O)Cn2c(=O)n(-c3cccc(Cl)c3)c(=O)c3sc4ccccc4c32)cc1 | – | inconclusive: 20 µM [inhibitor, partial curve] |
| CO[C@@H]1/C=C\CC(=O)N2CCC[C@@H]2C(=O)OC[C@@H](C)C(=O)OC[C@H]1C | inactive: -1.99% [at 11.6 µM] | – |

| Compound | activity, negative = inhibition | Potency |
| --- | --- | --- |
| CCC(Sc1nc2nccnc2c(=O)n1Cc1ccc(C)cc1)C(=O)NC1CCCCC1 (stereo not given) | – | inconclusive: 17.8 µM [inhibitor, partial curve] |
| COC(=O)[C@@]1(Cc2ccccc2)[C@H]2c3cc(C(=O)N4CCCC4)n(CCO)c3C[C@H]2CN1C(=O)c1ccccc1 | – | inconclusive: 3.55 µM [inhibitor, single point] |
| CC1=C(C(=O)Nc2ccccc2)C(c2ccc(C)o2)n2c(s/c(=C\c3ccco3)c2=O)=N1 (stereo not given) | – | inconclusive: 39.8 µM [inhibitor, single point] |
| COc1ccc(C(=O)Nc2ccccc2-c2nnn(CC(=O)NCc3ccco3)n2)cc1 | – | inconclusive: 25.1 µM [inhibitor, single point] |
| O=C1CC(c2nc(-c3ccccc3)no2)CN1c1ccc2c(c1)OCCO2 (stereo not given) | – | inconclusive: 17.8 µM [inhibitor, partial curve] |
| O=C(COC(=O)C1(c2ccccc2F)CCCC1)N1CCc2ccccc21 | – | inconclusive: 44.7 µM [inhibitor, single point] |
| O=C(Nc1cc(Cl)cc(Cl)c1)c1ccc(Cn2c(=O)[nH]c3ccsc3c2=O)cc1 | – | inconclusive: 12.6 µM [inhibitor, partial curve] |
| CCOc1cc(C2C(C(=O)OC)=C(C)NC3=C2C(=O)c2ccccc23)c(Br)cc1O (stereo not given) | inactive: 10.7% | – |
| COc1ccc2oc(-c3ccc(C)c(NC(=O)CSc4ccc(Cl)cc4)c3)nc2c1 | – | inconclusive: 44.7 µM [inhibitor, single point] and inconclusive: 25.1 µM [inhibitor, single point] |
| O=C(CNC(=O)c1cccs1)c1ccc([N+](=O)[O-])cc1 | – | inconclusive: 35.5 µM [inhibitor, single point] |
| CCN(CC)c1ccc(NC(=O)CN2C(=O)c3cccnc3Sc3ccccc32)c(C)c1 | inactive: 9.65% | – |
| COc1cccc(NC(=O)Cn2c(=O)n(CC(=O)NCCc3ccccc3)c(=O)c3sccc32)c1 | – | inconclusive: 39.8 µM [inhibitor, single point] |
| Cc1ccc(SCC(=O)NCC2CCCO2)cc1 (stereo not given) | inactive: 10.1% | – |
| O=C(Oc1cccc2ccccc12)c1cc(Cl)nc2ccccc12 | – | inconclusive: 15.8 µM [inhibitor, partial curve, poor fit] |
| O=C(NCc1ccco1)c1ccc2c(c1)N(Cc1ccc(Cl)cc1)CCS2 | – | inconclusive: 10 µM [activator, partial curve] |
| C[C@@H](C(=O)Nc1ccc2ccccc2c1)[C@@H]1C[C@@]1(C)[C@@H](NS(=O)(=O)c1ccc2ccccc2c1)c1ccccc1 | – | inconclusive: 15.8 µM [inhibitor, single point] |
| O=C(NCc1ccc(N2CCCC2=O)cc1)NC1CCCCC1 | – | inconclusive: 0.501 µM [inhibitor, single point] |
| Nc1c(C(=O)c2ccccc2)sc2snc(SCC(=O)c3ccccc3)c12 | – | inconclusive: 17.8 µM [inhibitor, single point] |
| Cc1cc(C)nc(NC(=O)c2ccc(Cl)cc2[N+](=O)[O-])c1 | inactive: -7.89% | – |
| COc1ccc(-c2cc(-c3ccc(F)cc3)nc(N3CCN(C)CC3)n2)cc1 | inactive: -4.5% | – |
| Cc1ccc(S(=O)(=O)n2nc(C)cc2N)cc1 | – | inconclusive: 44.7 µM [inhibitor, single point] |
| Cc1cc(C)cc(NC(=O)Cn2c3ncccc3c(=O)n2-c2ccc(C)c(C)c2)c1 | – | inconclusive: 14.1 µM [inhibitor, partial curve] |

| Compound | activity, negative = inhibition | Potency |
| --- | --- | --- |
| N[C@H](C(=O)O)c1cc(O)cc(O)c1 | – | inconclusive: 7.94 µM [inhibitor, partial curve] |
| O=C(c1ccccc1)C1Oc2ccccc2C2CC(c3cccs3)=NN12 (stereo not given) | – | inconclusive: 14.1 µM [inhibitor, single point] |
| N#Cc1ccc(C(=O)NCC(c2ccco2)N2CCCC2)cc1 (stereo not given) | inactive: 4.55% | – |
| Clc1ccc2[nH]cc(-c3nnnn3-c3ccccc3)c2c1 | – | inconclusive: 20 µM [inhibitor, partial curve] |
| O=C(Oc1ccc(-c2cnc3ccccc3n2)cc1)c1ccco1 | – | inconclusive: 35.5 µM [inhibitor, partial curve, poor fit] |
| Cc1nc(NC(=O)CSc2nnnn2C)sc1C | inactive: -3.17% | – |
| CCCCc1ccc(NC(=O)c2ccc3c(c2)CCN3S(=O)(=O)c2ccccc2)cc1 | – | inconclusive: 14.1 µM [inhibitor, partial curve] |
| O=C(Nc1cc(C(F)(F)F)cc(C(F)(F)F)c1)c1ccc(Cn2cc(C(F)(F)F)ccc2=O)cc1 | – | inconclusive: 14.1 µM [inhibitor, partial curve] |
| CCOC(=O)c1c(NC(=O)c2c(-c3ccccc3)noc2C)sc(C)c1-c1ccccc1 | inactive: -5.82% | – |
| N#Cc1c2n(c(=O)[nH]c1=O)CCCCC2 | inactive: -2.23% | – |
| NC(=O)CNC(=O)[C@@H]1CC2(CC(c3cccc(Br)c3)=NO2)CN1C(=O)c1ccc(Br)cc1 (stereo not given in full) | inactive: -7.05% | – |
| O=C(N/N=C1/C[C@@H](O)[C@@H](O)[C@@H]2[C@@H]3C(=O)N(C4CCCCC4)C(=O)[C@H]3CC[C@H]12)OCc1ccccc1 | inactive: -2.93% [at 11.6 µM] | – |
| CCC(C)n1c(=S)[nH]c2c(sc3ccc([N+](=O)[O-])cc32)c1=O (stereo not given) | – | inconclusive: 44.7 µM [activator, single point] |
| Clc1ccccc1N=C1NN=C(c2cccs2)CS1 | inactive: -9.23% | – |
| CCOc1ccc(-n2c(N)c(C(=O)NCc3cccnc3)sc2=S)cc1 | – | inconclusive: 35.5 µM [inhibitor, single point] |
| CC(=O)Nc1ccc(C(=O)/C=C/c2ccco2)cc1 | – | inconclusive: 35.5 µM [inhibitor, single point] |
| Brc1ccc(-c2nc3ncccn3c2NC2CCCCC2)o1 | inactive: 3.28% | – |
| CC(C)CC(=O)/C=C/n1c(=S)oc2ccccc21 | – | inconclusive: 10 µM [inhibitor, partial curve] |
| CCOC(=O)c1ccc(CN(Cc2ccc(C)cc2)S(=O)(=O)c2ccc(NC(C)=O)cc2)cc1 | – | active: 11.2 µM |
| COC(=O)c1ccccc1Sc1snnc1C | – | inconclusive: 7.08 µM [inhibitor, single point] |
| CCc1nn(CC(=O)N2CCN(c3cccc(C(F)(F)F)c3)CC2)c(=O)c2cccn12 | – | inconclusive: 14.1 µM [inhibitor, single point] |
